Experimental data: a collection of fitness landscapes (doi:10.1126/science.1257360)
The list shows a part of the results.

B1: PhoQ; a variant is named by its letters at X, in order, P23837 (parent)
chain: MKKLLRLFFPLSLRVRFLLATAAVVLVLSLAYGMVALIGYSVSFDKTTFRLLRGESNLFYTLAKWENNKLHVELPENIDKQSPTMTLIYDENGQLLWAQRDVPWLMKMIQPDWLKSNGFHEIEADVNDTSLLLSGDHSIQQQLQEVREDDDDAEMTHSVAVNVYPATSRMPKLTIVVVDTIPVELKSSYMVWSWFIYVLSANLLLVIPLLWVAAWWSLRPIEALAKEVRELEEHNRELLNPATTRELTSLVRNLNRLLKSERERYDKYRTTLTDLTHSLKTPLXXLQXXLRSLRSEKMSVSDAEPVMLEQISRISQQIGYYLHRASMRGGTLLSRELHPVAPLLDNLTSALNKVYQRKGVNISLDISPEISFVGEQNDFVEVMGNVLDNACKYCLEFVEISARQTDEHLYIVVEDDGPGIPLSKREVIFDRGQRVDTLRPGQGVGLAVAREITEQYEGKIVAGESMLGGARMEVIFGRQHSAPKDE

Variants of: B1
Test: enrichment ratio after two sorts for PhoP signalling (ratio (wild type AVST 3.29)); higher = more functional
Settings: with PhoP (E. coli)

Q: How did the enrichment ratio turn out when HVLW was run?
A: Its enrichment ratio is ≤ 0.25.

Q: RPLA was tested. Which enrichment ratio did it give?
A: The enrichment ratio was ≤ 0.25.

Q: EQWS was tested. Which enrichment ratio did it give?
A: Its enrichment ratio is ≤ 0.25.

Q: With MRAA as the variant, how does the enrichment ratio read?
A: Its enrichment ratio is ≤ 0.25.

Q: With RGGW as the variant, how does the enrichment ratio read?
A: The enrichment ratio was ≤ 0.25.

Q: How did the enrichment ratio turn out when VNAN was run?
A: Its enrichment ratio is ≤ 0.25.

Q: ESDK was tested. Which enrichment ratio did it give?
A: Its enrichment ratio is ≤ 0.25.

Q: Which enrichment ratio does the source give for VISW here?
A: Its enrichment ratio is ≤ 0.25.

Q: For HTHW, which enrichment ratio is on record?
A: Its enrichment ratio is ≤ 0.25.

Q: With KLSI as the variant, how does the enrichment ratio read?
A: The enrichment ratio was ≤ 0.25.

Q: How did the enrichment ratio turn out when SEDT was run?
A: Its enrichment ratio is ≤ 0.25.

Q: FMEW was tested. Which enrichment ratio did it give?
A: Its enrichment ratio is ≤ 0.25.

Q: With PRMT as the variant, how does the enrichment ratio read?
A: The enrichment ratio was ≤ 0.25.

Q: For FGPF, which enrichment ratio is on record?
A: Its enrichment ratio is 0.931.

Q: With LCLM as the variant, how does the enrichment ratio read?
A: Its enrichment ratio is 0.3.

Q: For QINK, which enrichment ratio is on record?
A: The enrichment ratio was ≤ 0.25.

Q: For LGCA, which enrichment ratio is on record?
A: The enrichment ratio was ≤ 0.25.

Q: With KSFG as the variant, how does the enrichment ratio read?
A: The enrichment ratio was ≤ 0.25.

Q: ITKD was tested. Which enrichment ratio did it give?
A: The enrichment ratio was ≤ 0.25.

Q: With KQTG as the variant, how does the enrichment ratio read?
A: The enrichment ratio was ≤ 0.25.

Q: Which enrichment ratio does the source give for SHYD here?
A: Its enrichment ratio is ≤ 0.25.

Q: Which enrichment ratio does the source give for ANSQ here?
A: Its enrichment ratio is 8.17.

Q: Which enrichment ratio does the source give for YNKE here?
A: Its enrichment ratio is ≤ 0.25.

Q: HRNH was tested. Which enrichment ratio did it give?
A: The enrichment ratio was ≤ 0.25.

Q: Which enrichment ratio does the source give for LWYR here?
A: Its enrichment ratio is ≤ 0.25.

Q: RCYH was tested. Which enrichment ratio did it give?
A: The enrichment ratio was ≤ 0.25.

Q: For ASDK, which enrichment ratio is on record?
A: The enrichment ratio was ≤ 0.25.

Q: Which enrichment ratio does the source give for SFFA here?
A: The enrichment ratio was ≤ 0.25.

Q: With RFNG as the variant, how does the enrichment ratio read?
A: Its enrichment ratio is ≤ 0.25.

Q: How did the enrichment ratio turn out when YTSE was run?
A: The enrichment ratio was ≤ 0.25.

Q: YPMF was tested. Which enrichment ratio did it give?
A: Its enrichment ratio is ≤ 0.25.

Q: Which enrichment ratio does the source give for YTQG here?
A: Its enrichment ratio is ≤ 0.25.

Q: Which enrichment ratio does the source give for RRMY here?
A: Its enrichment ratio is ≤ 0.25.

Q: For MYWY, which enrichment ratio is on record?
A: The enrichment ratio was ≤ 0.25.

Q: With SDYN as the variant, how does the enrichment ratio read?
A: Its enrichment ratio is ≤ 0.25.

Q: FCRN was tested. Which enrichment ratio did it give?
A: Its enrichment ratio is ≤ 0.25.

Q: How did the enrichment ratio turn out when GYFI was run?
A: Its enrichment ratio is ≤ 0.25.

Q: Which enrichment ratio does the source give for YHHM here?
A: The enrichment ratio was ≤ 0.25.

Q: LCCM was tested. Which enrichment ratio did it give?
A: Its enrichment ratio is ≤ 0.25.

Q: How did the enrichment ratio turn out when QCPF was run?
A: Its enrichment ratio is ≤ 0.25.

Q: Which enrichment ratio does the source give for IYPY here?
A: The enrichment ratio was ≤ 0.25.

Q: For AFDI, which enrichment ratio is on record?
A: The enrichment ratio was ≤ 0.25.

Q: Which enrichment ratio does the source give for NPFD here?
A: The enrichment ratio was ≤ 0.25.

Q: How did the enrichment ratio turn out when TWVD was run?
A: Its enrichment ratio is ≤ 0.25.

Q: Which enrichment ratio does the source give for SINL here?
A: Its enrichment ratio is 3.51.

Q: MEAQ was tested. Which enrichment ratio did it give?
A: Its enrichment ratio is 10.4.

Q: QYDF was tested. Which enrichment ratio did it give?
A: The enrichment ratio was ≤ 0.25.

Q: DSRE was tested. Which enrichment ratio did it give?
A: Its enrichment ratio is ≤ 0.25.

Q: Which enrichment ratio does the source give for MMCN here?
A: The enrichment ratio was 3.36.

Q: With QGFP as the variant, how does the enrichment ratio read?
A: The enrichment ratio was ≤ 0.25.

Q: For FQCM, which enrichment ratio is on record?
A: Its enrichment ratio is 10.7.

Q: Which enrichment ratio does the source give for QNAN here?
A: The enrichment ratio was ≤ 0.25.

Q: How did the enrichment ratio turn out when QPWR was run?
A: The enrichment ratio was ≤ 0.25.

Q: Which enrichment ratio does the source give for MIMH here?
A: Its enrichment ratio is ≤ 0.25.

Q: ENIH was tested. Which enrichment ratio did it give?
A: Its enrichment ratio is ≤ 0.25.

Q: For HKVR, which enrichment ratio is on record?
A: The enrichment ratio was ≤ 0.25.

Q: For AIIV, which enrichment ratio is on record?
A: Its enrichment ratio is 3.98.

Q: How did the enrichment ratio turn out when YTAW was run?
A: Its enrichment ratio is ≤ 0.25.

Q: QQWF was tested. Which enrichment ratio did it give?
A: Its enrichment ratio is ≤ 0.25.

Q: Which enrichment ratio does the source give for HSAS here?
A: Its enrichment ratio is 0.421.

Q: How did the enrichment ratio turn out when SVCA was run?
A: Its enrichment ratio is 9.74.

Q: For TSLI, which enrichment ratio is on record?
A: The enrichment ratio was 11.8.

Q: Which enrichment ratio does the source give for PTLW here?
A: Its enrichment ratio is ≤ 0.25.

Q: LWTR was tested. Which enrichment ratio did it give?
A: Its enrichment ratio is ≤ 0.25.

Q: Which enrichment ratio does the source give for ICFW here?
A: Its enrichment ratio is ≤ 0.25.

Q: With TCFQ as the variant, how does the enrichment ratio read?
A: Its enrichment ratio is ≤ 0.25.

Q: How did the enrichment ratio turn out when TPWF was run?
A: Its enrichment ratio is ≤ 0.25.

Q: NKLM was tested. Which enrichment ratio did it give?
A: The enrichment ratio was ≤ 0.25.

Q: How did the enrichment ratio turn out when VWEV was run?
A: Its enrichment ratio is ≤ 0.25.

Q: For WFLK, which enrichment ratio is on record?
A: Its enrichment ratio is ≤ 0.25.

Q: With DRAY as the variant, how does the enrichment ratio read?
A: The enrichment ratio was ≤ 0.25.

Q: MDWL was tested. Which enrichment ratio did it give?
A: The enrichment ratio was ≤ 0.25.

Q: With SKDD as the variant, how does the enrichment ratio read?
A: Its enrichment ratio is ≤ 0.25.

Q: With TDIL as the variant, how does the enrichment ratio read?
A: The enrichment ratio was 1.54.

Q: Which enrichment ratio does the source give for DPMP here?
A: The enrichment ratio was ≤ 0.25.

Q: Which enrichment ratio does the source give for LHLP here?
A: The enrichment ratio was ≤ 0.25.

Q: For AMMM, which enrichment ratio is on record?
A: Its enrichment ratio is 8.4.
